# Test results from PubChem BioAssay AID624296 (National Center for Advancing Translational Sciences (NCATS), 2012).
# The campaign covered roughly 350,000 compounds. About 9,900 (2.8%) were called active. This list was built around the results that the source calls inconclusive (neither active nor inactive); the mix of calls is not that of the screen. The call rests on the fitted dose curve; in most records, active means well fitted activation curve with a large enough effect; inconclusive means small, poorly fitted or top-dose-only effect; inactive means no such curve, though single readings can be large or run the other way. No potency is given beside an inconclusive call; the fits are too rough.
# Assay: A quantitative high throughput screen for small molecules that induce DNA re-replication in MCF 10a normal breast cells. Further: nearly all actives have a fitted effect of over 50% in size. On activity, positive = re-replication: % of control where 0% means no effect.
# Details: MCF 10A DNA re-replication, Hoechst nuclear intensity, 48 h; activity, positive = re-replication: at 46.1 µM (top of the series)
# Potency means the concentration at half of the fitted maximal effect; tags describe the fitted curve by direction and shape.
SMILES,"activity, positive = re-replication",Potency
NC1=C([N+](=O)[O-])C(c2ccc3c(c2)OCO3)c2c(c3ccccc3oc2=O)O1 (stereo not given),inactive: -2.13%,–
CC1C(=O)OC2CCN3CC=C(COC(=O)C(C)(O)C1(C)O)C23 (stereo not given),inactive: -2.57%,–
COc1cc(/C=C/C(=O)c2c(O)n(CCc3ccccc3)c(=O)[nH]c2=O)ccc1O,–,"inconclusive [activator, single point]"
COc1ccc(NC(=O)CCOc2cc(C)ccc2C)cc1S(=O)(=O)N1CCCCC1,–,"inconclusive [activator, partial curve, poor fit]"
C[C@@]12C(=O)N(Cc3ccco3)CC(=O)N1[C@H]1c3ccccc3OC[C@@H]1[C@@H]2c1ccccc1,inactive: -14.5%,–
CN1CCN(/N=C/c2c(O)n(CCC3=CCCCC3)c(=S)[nH]c2=O)CC1,–,"inconclusive [activator, single point]"
COc1ccc(Cn2c(O)c(C=Nc3c(C)n(C)n(-c4ccccc4)c3=O)c(=O)[nH]c2=O)cc1,inconclusive: -433% [activator],–
O=P(c1ccccc1)(c1nc2ccccc2s1)N1CCOCC1 (stereo not given),inactive: 5.92%,–
Brc1ccccc1,inactive: 34.1%,–
CC1=NNC(=O)C1Br (stereo not given),–,"inconclusive [activator, single point]"
CC(C)(COC(=O)C(c1ccccc1)c1ccccc1)CN1CCOCC1,–,"inconclusive [activator, partial curve, poor fit]"
Cc1cccc(OCCn2cccc2/C=C2/C(=O)NC(=O)N(Cc3ccco3)C2=O)c1,–,"inconclusive [activator, single point]"
O=C(N/N=C/c1ccncc1)c1cnccn1,–,"inconclusive [activator, single point]"
CCOP(=O)(OCC)C(Nc1cccc(C(F)(F)F)c1)c1ccc(C)cc1 (stereo not given),–,"inconclusive [activator, single point]"
CCOC(=O)C1=CC(=C2C(=O)N(CC)C(=S)N(CC)C2=O)c2ccccc2O1,–,"inconclusive [activator, single point]"
C[C@H](CO)N1C[C@H](C)[C@@H](CN(C)Cc2ccc(-c3ccccc3)cc2)Oc2c(NC(=O)c3ccncc3)cccc2C1=O,–,"inconclusive [activator, partial curve, poor fit]"
CC(=O)OC1CC2(O)C3CCC4CC(O)CCC4(C)C3CCC2(C)C1C1=CC(=O)OC1 (stereo not given),–,"inconclusive [activator, full curve, poor fit]"
O=C(CC1CCCCC1)c1c(O)c2ccccc2oc1=O,–,"inconclusive [activator, partial curve, poor fit]"
CN1C(=O)/C(=C/c2cccn2-c2ccc3ccccc3c2)C(=O)NC1=S,–,"inconclusive [activator, partial curve, poor fit]"
CC(C)CCOP(=O)(c1ccc(N(C)C)cc1)C(O)c1c(Cl)cccc1Cl (stereo not given),–,"inconclusive [activator, partial curve, poor fit]"

SMILES,"activity, positive = re-replication",Potency
Cc1[nH]nc2ccc(-c3cncc(OC[C@@H](N)Cc4c[nH]c5ccccc45)c3)cc12,–,active: 2.31 µM
Cn1c(=O)cc(OCC(=O)N2CCN(Cc3ccc4c(c3)OCO4)CC2)c2ccccc21,–,"inconclusive [activator, single point]"
CCCCc1nc2ccccc2c(=O)n1-c1ccccc1O,–,"inconclusive [activator, single point]"
CC(=O)Nc1cc(Cl)c(N=Cc2ccc(O)cc2O)cc1Cl,–,"inconclusive [activator, single point]"
Cc1nc2cc(C(F)(F)F)ccc2n1C1CCN(Cc2nnnn2CCc2ccccc2)CC1,–,"inconclusive [activator, single point]"
CCOC(=O)c1ccc(-[n+]2c(-c3ccccc3)cc(-c3ccccc3)cc2-c2ccccc2)cc1,–,"inconclusive [activator, partial curve]"
O=C1NC(=O)N(Cc2ccco2)C(=O)/C1=C\c1cccn1CCOc1ccc(Cl)cc1,–,"inconclusive [activator, single point]"
CCCCCn1c(SCCCC)nc2c1c(=O)[nH]c(=O)n2C,–,"inconclusive [activator, partial curve, poor fit]"
COc1ccccc1-n1c(O)c(/C=N/N2CCCCC2)c(=O)n(-c2ccccc2OC)c1=S,–,"inconclusive [activator, partial curve, poor fit]"
COc1ccc(NC(=O)C(=O)NNC(=O)C(C)Oc2ccc(Cl)cc2Cl)cc1 (stereo not given),–,"inconclusive [activator, partial curve, poor fit]"
CC[N+](CC)(CC)CCCCCCCCCC[N+](CC)(CC)CC,–,"inconclusive [activator, full curve, poor fit]"
OC(CNCCc1c[nH]c2ccccc12)c1ccccc1 (stereo not given),–,"inconclusive [activator, partial curve, poor fit]"
Cc1cccn2c(=O)c3c(nc12)N1CCCCCC1C1(C3)C(=O)N(C)C(=O)N(C)C1=O (stereo not given),inactive: 4.76%,–
CSc1ccc(C(=O)C2CCCN(Cc3cc4ccccc4[nH]3)C2)cc1 (stereo not given),inactive: 1.14% [at 9.22 µM],–
CC(=O)N1N=C2C3CCN(CC3)C2C1c1ccccc1 (stereo not given),–,"inconclusive [activator, single point]"
CC12CC[C@H]3[C@@H](CCC4(O)C[C@H](O)CCC34/C=N/NC(=O)c3ccccc3F)C1(O)CCC2C1=CC(=O)OC1 (stereo not given in full),–,"inconclusive [activator, partial curve]"
O=c1c2ccccc2nc(/C=C/c2ccc(O)cc2)n1-c1ccccc1O,–,active: 20.6 µM
COC(=O)C1=C(c2ccc(-c3ccccc3)c(F)c2)C[C@@H]2CC[C@H]1N2C(=O)NCC1CC1,–,"inconclusive [activator, partial curve, poor fit]"
CN1CC=C(/C=C/c2ccc(-c3ccccc3)cc2)CC1,–,active: 16.4 µM
CC1(C)[C@@H](C=C(Cl)Cl)[C@@H]1C(=O)OCc1c(F)c(F)cc(F)c1F,inactive: 1.94%,–
